Test results from patent US20200338132A1, “COMPOSITIONS AND METHODS FOR THE EXPANSION OF HEMATOPOIETIC STEM AND PROGENITOR CELLS AND TREATMENT OF INHERITED METABOLIC DISORDERS” (Magenta Therapeutics Inc., priority 2018, published 2020).

Legend:
NSG mice [1] = test: engraftment of expanded CD34+ cells in sub-lethally irradiated NSG mice; type: in vivo; conditions: relative to vehicle-cultured CB derived CD34+ cells
Method: […]. Cell number and immunophenotype were assessed by flow cytometry, and HSC function was evaluated by cell and molecular assays in vitro. The expanded cells were transplanted into sub-lethally irradiated NSG mice to evaluate engraftment potential in vivo. Engraftment rates were evaluated by flow cytometry of the peripheral blood and bone marrow.

[2] = system: CD90− and CD90+ sorted cells; test: colony formation on methylcellulose of sorted CD90− or CD90+ cells cultured with compounds; conditions: Scriptaid 100 nM and 300 nM, versus vehicle; for colony formation of CD90+ sorted cells: TSA 30 nM
[3] = system: mobilized peripheral blood cells; test: 7-day expansion of mobilized peripheral blood cells, 10-point dose response, FACS for CD34 and CD90
NSG mice [4] = test: engraftment in NSG mice of CD34+ cord blood cells cultured 10 days with compounds, hCD45+ at 12 weeks; type: in vivo; conditions: 12 weeks after transplantation
Method: […]. The frequency of human CD45 cells was assayed at 12 weeks post transplantation. The Bar graph indicates the median. Each symbol represents individual mouse (n=6-8) *p<0.05, *p<0.01, *p<0.001 relative to vehicle-cultured cells.
In order to determine if the increase in CD90+ expression would lead to expansion of long-term HSCs, the percent engraftment of cells expanded using SR, UM171, Entinostat, LMK235, Romidepsin, Scriptaid, TSA or VPA at varying concentrations was assessed in NSG mice. CD34+ cord blood cells, either fresh or cultured for 10 days with or without SR, UM171, Entinostat, LMK235, Romidepsin, Scriptaid, TSA or VPA were transplanted into NSG mice, 12 weeks after transplantation, the frequency of human CD45+(hCD45+) cells was assessed. […] It was therefore hypothesized that the CD90+ cells observed after expansion UM171, Entinostat, LMK235, Romidepsin, Scriptaid, TSA or VPA were not true HSCs. […] […]. Rather, culturing cells with these agents instead causes CD90− cells to turn on the expression of CD90 during the culturing and expansion process.

CD34+ cord blood cells = conditions: cultured primary human CD34+ cells (Boitano et al.); cited from earlier work
[5] = cited from earlier work
CD90− cells = test: CD90 expression on sorted CD90− cells cultured 8 days with compounds, FACS; type: cell-based, human
Description: FIG. 20 is a diagram for an experimental protocol to determine the disconnect between phenotype and function of CD90+ cells. Unsorted cells will be sorted using CD90 and CD34 as markers, and cultured with compounds. Cultured CD34+CD90+ and CD34+CD90− cells will be phenotyped in vitro via FACS and/or assayed for colony formation on methylcelulose.
TSA and VAP (concentrations in μM, as shown).
First, unsorted cells were sorted using CD34 and CD90 into two populations, a CD34+CD90− population and a CD34+CD90+ population. CD90− cells were cultured for 8 days with DMSO, SR1, UM171 or valproic acid (VPA). These cultured cells were the phenotyped for CD34 and CD90 expression using FACS. […] Second, cells cultured with various compounds were assessed for their ability to form colonies on methylcelulose.

With `CC(C)n1cnc2c(NCCc3ccc(O)cc3)nc(-c3csc4ccccc34)nc21` [SR1, StemRegenin1] the “engraftment in NSG mice” value (NSG mice [1]) was “significant increase in engraftment in NSG mice”, the “colony formation of CD90− sorted cells” value ([2]; TSA 30 nM and 100 nM) was “none of these cultured cells were able to form colonies better than the vehicle alone” and the “colony formation of CD90+ sorted cells” value [2] was “significantly better than vehicle alone”. For the same compound, the “colony formation of CD90+ sorted cells” value ([2]; listed as SR) was “increases colony formation units (CFUs) after expansion”, the “number of CD90+ cells” value ([3]; after 7 days of expansion) was “increased the number of CD90+ cells” and the “differentiation of CD34+ cells into CD34− cells” value ([3]; day 7, about half of DMSO vehicle cells differentiated) was “prevented the differentiation of CD34+ cells”. For the same compound, the “engraftable HSCs (frequency of human CD45+ cells)” value (NSG mice [4]) was “largest increase in engraftable HSCs”, the “number of phenotypic HSCs” value (CD34+ cord blood cells) was “enhances the number of phenotypic HSCs” and the “decrease in time to neutrophil recovery” value ([5]; patients transplanted with SR1-expanded cord blood cells versus historical controls) was 2 weeks. The “time to neutrophil recovery” value ([5]; patients transplanted with SR1-expanded cord blood cells, historical controls 25 days) was 10.5 days and the “CD90 expression of sorted CD90− cells after culture” value (CD90− cells) was “remained uniformly CD90−”.
